Measurements taken from the RNAGym collection of RNA variant scans (doi:10.7554/elife.90254).
The source gives no read counts; variants with many changes may rest on few reads.

B1: OR4K15 (parent)
chain: GUUAACGGUCAUAGGCCAUGGAAACUAGGAGCACCAUUUCGCUGCCAGUGAAGAAAUGAACAAAGAAAAUCUGGGCCAGGCAGGCAUCAAAAGAAAUAGUCUUGCGCUCAACCAGAAAGUCUGUAAUCAUUUUAAGGGUA

Variants of: B1
Assay: self-cleavage, relative activity (ratio to wild type); higher = more cleavage; in vitro, sequencing; the parent is a self-cleaving ribozyme
U19A A55G G106C U139C showed a self-cleavage of 0.01.
A18G U37C U43C A51G gave a self-cleavage of 1.43.
In the case of U19A U49C A64G A67G, the self-cleavage is reported as 1.
U19C A30G U87C showed a self-cleavage of 0.23.
In the case of A18G A68C A118G, the self-cleavage is reported as 1.03.
In the case of U19C A68G U132C, the self-cleavage is reported as 0.83.
For U19C A52G G74A, the self-cleavage was 0.24.
In the case of U19C A23G G28A A66G A110G U122C, the self-cleavage is reported as 0.07.
U19A A94G G104A showed a self-cleavage of 0.04.
In the case of U19C U26C U97C U124C, the self-cleavage is reported as 0.85.
Work on U19C A111U A117G U132C yielded a self-cleavage of 0.12.
With A18G U87C G119A U122C the self-cleavage was 0.27.
A18G U49G A111G A126G showed a self-cleavage of 0.05.
Work on U19C U38C U39A A67G U132C yielded a self-cleavage of 0.34.
U19C U39C A78U showed a self-cleavage of 0.48.
With U19A A68G A86G U122C the self-cleavage was 0.64.
U19A A23G A47U gave a self-cleavage of 1.29.
In the case of U19C U39A A82U A114C A116G, the self-cleavage is reported as 0.01.
A18G U102A U122C showed a self-cleavage of 0.74.
A18U G31A G75C A126G showed a self-cleavage of 0.13.
Variant A18U U100C A117G has a self-cleavage of 2.95.
Work on A18G A54G A111G A114G yielded a self-cleavage of 0.12.
In the case of A18G U49C A89C, the self-cleavage is reported as 1.34.
In the case of U19A U37C U43C A91G A117G A118G, the self-cleavage is reported as 1.18.
Variant U19A G58A G84A has a self-cleavage of 1.8.
U19A A59U A98G U120C showed a self-cleavage of 0.21.
For U19C A27G A94U A126G, the self-cleavage was 1.26.
Variant A18G A56G A111G has a self-cleavage of 0.04.
For U19A A64G A82G A94G, the self-cleavage was 0.56.
A18G U38C U49C A66G G83A A118G A129G showed a self-cleavage of 0.89.
A18G A94G U97C showed a self-cleavage of 0.73.
For A18U A22G A51G A54G A82U A98G A125G, the self-cleavage was 0.05.
In the case of A18U U38C A92G U124C, the self-cleavage is reported as 0.5.
U19C A89G A92G U102C gave a self-cleavage of 1.96.
With A18U G106C A114G the self-cleavage was 0.01.
With U19C A33U A52G the self-cleavage was 1.5.
A18G A36C A86U U127C gave a self-cleavage of 1.3.
For U19C A66G U132C, the self-cleavage was 1.9.
A18U A64G U102C A134G gave a self-cleavage of 1.94.
U19C A94G A111G showed a self-cleavage of 0.03.
In the case of A18G A59G A69G, the self-cleavage is reported as 1.62.
Variant U19C G53U A86U U122C U139A has a self-cleavage of 1.57.
Work on U19C A24G A82G yielded a self-cleavage of 0.11.
Variant U19C A91G A117G has a self-cleavage of 0.52.
Work on U19A A24G U37C A129G U131C yielded a self-cleavage of 1.81.
With U19C A22G A52G A114U the self-cleavage was 0.07.
Variant U19A C107A U120C has a self-cleavage of 0.02.
With U19C A30G U122C the self-cleavage was 2.19.
For A18U A55G G84A U102A, the self-cleavage was 1.69.
Variant U19C A90U A94U A110G has a self-cleavage of 0.22.
A18G A69U A78G gave a self-cleavage of 0.2.
Variant A18G A69G A126G has a self-cleavage of 0.42.
Variant U19C A30C U38C A89G A98G A117G A140G has a self-cleavage of 0.68.
Variant A18G A89U A92G U127C has a self-cleavage of 0.52.
For U19C A63G A117G, the self-cleavage was 1.26.
Variant A18G U38C U43A A110U has a self-cleavage of 2.
In the case of A18G A51G A55G U127A, the self-cleavage is reported as 1.02.
In the case of A18G U49C A96G U100C, the self-cleavage is reported as 1.58.
U19C A30G A117U U122C showed a self-cleavage of 0.49.
A18U C77U A126U G136A gave a self-cleavage of 1.1.
Variant A18G A64G A66U has a self-cleavage of 0.71.
Work on A18U A47G A68G A86G yielded a self-cleavage of 1.31.
U19A U108C A114U U132A gave a self-cleavage of 0.01.
Variant U19A G65A A67U A96G A118G has a self-cleavage of 1.52.
For A18G A52G A62C A111U, the self-cleavage was 0.19.
For A18U A67G A82U A96G, the self-cleavage was 0.18.
With A18U A23G U57C A91G U97C A118G U133C the self-cleavage was 0.33.
In the case of A18G A78U G137A, the self-cleavage is reported as 0.29.
Variant U19A A52G A60U A96G A111G U130G has a self-cleavage of 0.03.
Work on U19C C32U U49C yielded a self-cleavage of 1.16.
Work on A18G U103C U131C yielded a self-cleavage of 0.67.
Work on U19A U57C A66U A118G A129U U131C yielded a self-cleavage of 0.09.
Variant A18G A59U A67G U122C has a self-cleavage of 0.87.
U19A A62U U97C U108C A126G U139C gave a self-cleavage of 0.
Variant U19C U39G A52G A68G has a self-cleavage of 0.61.
Variant A18U A78G G83A A114G has a self-cleavage of 0.05.
A18G U87C A111U A116G U127C gave a self-cleavage of 0.
For U19A A66G A69G, the self-cleavage was 1.22.
A18G A62G U131C gave a self-cleavage of 0.92.
Variant A18U A55G U57C A62G has a self-cleavage of 0.71.
U19C A69G C105U G136A gave a self-cleavage of 0.34.
Work on A18G A47U A55G G58A yielded a self-cleavage of 0.3.
A18G A62U A68G U108C A117G showed a self-cleavage of 0.03.
Work on A18G U49C A54G A111G yielded a self-cleavage of 0.04.
In the case of A18U U70C A98G, the self-cleavage is reported as 0.44.
Variant A18G U39C U49C A55G A56C A86U U87C A135G has a self-cleavage of 0.31.
In the case of A18U A23G U37C A126G, the self-cleavage is reported as 1.09.
In the case of A18G U103C U122C, the self-cleavage is reported as 0.23.
For A18U U26C A89U, the self-cleavage was 1.07.
With A18G U38C A91G U102C the self-cleavage was 2.06.
For U19C A23C A33G U49A, the self-cleavage was 0.
A18G A63G U100C U102A gave a self-cleavage of 1.96.
A18U A54G A64U U72C gave a self-cleavage of 0.2.
A18U A110U A129G U139A A140G gave a self-cleavage of 0.72.
A18G U19C U70C A95C A118U gave a self-cleavage of 0.13.
In the case of U19C A24G A54G A69G, the self-cleavage is reported as 0.9.
In the case of A18G U39C A78U A89C, the self-cleavage is reported as 0.38.
Work on A18U A96G U122C yielded a self-cleavage of 0.87.
Work on U19C A64G G75A G80U A86U G99U yielded a self-cleavage of 0.02.
U19A A51G A118U A134U gave a self-cleavage of 0.84.
A18G A51G A135G gave a self-cleavage of 1.2.
In the case of A18G A51U A96G, the self-cleavage is reported as 0.78.
Variant U19C U37C U38C has a self-cleavage of 1.55.
In the case of U19A A62G A67G A94G, the self-cleavage is reported as 0.65.
U19C A64G G104U showed a self-cleavage of 0.01.
For A18G U37C U49C, the self-cleavage was 1.32.
For U19A A27G A92G, the self-cleavage was 1.75.
A18G U19C A36U U72G A91U U108C showed a self-cleavage of 0.03.
A18G A59G A86C A125U U131C gave a self-cleavage of 0.82.
A18U A47G A56G U87C U103C A111U gave a self-cleavage of 0.01.
With U19A U38C A66G U102C the self-cleavage was 1.79.
U19C C76A C128U gave a self-cleavage of 0.14.
In the case of A18G A62U A64U A82G A90U A114G, the self-cleavage is reported as 0.17.
For U19A A30G A59G A82G, the self-cleavage was 0.53.
In the case of A18U A86G U97C, the self-cleavage is reported as 0.76.
Variant U19C A116G U127A has a self-cleavage of 1.12.
With U19C A22G A59G A64G U122C the self-cleavage was 1.19.
A18G U108A A110G U130A A140G gave a self-cleavage of 0.02.
A18G U49A A67G A68G A114G A117G gave a self-cleavage of 0.49.
A18G A51G A96G A129C U130C showed a self-cleavage of 0.85.
For U19C A30G U103C U130C, the self-cleavage was 0.35.
With A18G A56G U108C U130C the self-cleavage was 0.
Variant U19C A24U A63G has a self-cleavage of 0.98.
For A18G A47U A111G, the self-cleavage was 0.03.
A18U A89G A118G U130C U139C gave a self-cleavage of 0.37.
U19C A24C U70C A111G gave a self-cleavage of 0.02.
For A18G A33G U57C U102C G123A, the self-cleavage was 1.8.
A18G G53A A67G U122C U132C gave a self-cleavage of 0.32.
With U19C A78U U87C the self-cleavage was 0.4.
With A18U A27G C45U A54G the self-cleavage was 1.31.
For U19A A116G U132C, the self-cleavage was 0.91.
In the case of A18U A63G C88U, the self-cleavage is reported as 1.32.
U19A U38C A117G U122C showed a self-cleavage of 1.73.
Work on U19C U26C A27G A78G A89G yielded a self-cleavage of 0.28.
Work on A18G U49C G65A A95G yielded a self-cleavage of 1.72.
U19C A27C U57C showed a self-cleavage of 1.12.
Work on A18U A52G U127C yielded a self-cleavage of 0.72.
U19A A23G U139C gave a self-cleavage of 1.24.
A18G U108A A114G gave a self-cleavage of 0.01.
Work on U19C A30C A89G yielded a self-cleavage of 1.33.
U19C A63G U132C gave a self-cleavage of 1.64.
A18G A54U A60G A129G gave a self-cleavage of 0.84.
A18G U43G U57A A90G gave a self-cleavage of 1.11.
Work on A18U U37C A114U yielded a self-cleavage of 0.02.
For U19C A56G U103A A140G, the self-cleavage was 0.34.
A18G G41A U43C A68G A94G U102C showed a self-cleavage of 1.98.
With U19A U26C U43C C71A the self-cleavage was 0.3.
Variant A18G U19C A59U A91G U122C U124C has a self-cleavage of 0.42.
With A18G A36U C105U U108C the self-cleavage was 0.01.
Variant U19C A54G A95G U108C has a self-cleavage of 0.01.
Variant A18G U43A A78U A82U U122C has a self-cleavage of 0.06.
Work on U19C U37C U87C yielded a self-cleavage of 1.71.
Variant U19C A47U A134G has a self-cleavage of 0.74.
Work on A18G G84U U102C yielded a self-cleavage of 0.37.
Variant U19C U39A U43C U108C has a self-cleavage of 0.02.
For U19A G53A U108A, the self-cleavage was 0.04.
With U19A A64G A96G the self-cleavage was 1.11.
U19A A91G A94G gave a self-cleavage of 1.47.
Work on A18G A55G A117G yielded a self-cleavage of 0.2.
In the case of A18U U26C A60G G73A, the self-cleavage is reported as 0.05.
In the case of A18U A60G A90G, the self-cleavage is reported as 0.75.
A18G A89G U139A showed a self-cleavage of 1.77.
A18U U72C A82G U139C gave a self-cleavage of 0.63.
In the case of A18U U43C A67G A68G G84A U87A, the self-cleavage is reported as 0.9.
Variant U19C A114U U132C has a self-cleavage of 0.05.
With A18G U19A U43A A51G the self-cleavage was 0.95.
A18G A94G A96G A117G gave a self-cleavage of 1.6.
